PubChem BioAssay AID504332 (National Center for Advancing Translational Sciences (NCATS), 2011)
About 31,000 (8.9%) of roughly 350,000 compounds were called active. Inconclusive results, whose numbers are uncertain, are shown with a selection of clear calls. Calls follow the shape of the dose curve; as a rule, active = well fitted inhibition curve with a large enough effect; inconclusive = small, poorly fitted or top-dose-only effect; inactive = no such curve, though single readings can be large or run the other way. Where the call is inconclusive, the potency comes from a doubtful curve fit.

Biological target: Histone-lysine N-methyltransferase EHMT2 (Homo sapiens) (UniProt Q96KQ7)
UniProt Q96KQ7, sequence (Q96KQ7 whole entry, looked up): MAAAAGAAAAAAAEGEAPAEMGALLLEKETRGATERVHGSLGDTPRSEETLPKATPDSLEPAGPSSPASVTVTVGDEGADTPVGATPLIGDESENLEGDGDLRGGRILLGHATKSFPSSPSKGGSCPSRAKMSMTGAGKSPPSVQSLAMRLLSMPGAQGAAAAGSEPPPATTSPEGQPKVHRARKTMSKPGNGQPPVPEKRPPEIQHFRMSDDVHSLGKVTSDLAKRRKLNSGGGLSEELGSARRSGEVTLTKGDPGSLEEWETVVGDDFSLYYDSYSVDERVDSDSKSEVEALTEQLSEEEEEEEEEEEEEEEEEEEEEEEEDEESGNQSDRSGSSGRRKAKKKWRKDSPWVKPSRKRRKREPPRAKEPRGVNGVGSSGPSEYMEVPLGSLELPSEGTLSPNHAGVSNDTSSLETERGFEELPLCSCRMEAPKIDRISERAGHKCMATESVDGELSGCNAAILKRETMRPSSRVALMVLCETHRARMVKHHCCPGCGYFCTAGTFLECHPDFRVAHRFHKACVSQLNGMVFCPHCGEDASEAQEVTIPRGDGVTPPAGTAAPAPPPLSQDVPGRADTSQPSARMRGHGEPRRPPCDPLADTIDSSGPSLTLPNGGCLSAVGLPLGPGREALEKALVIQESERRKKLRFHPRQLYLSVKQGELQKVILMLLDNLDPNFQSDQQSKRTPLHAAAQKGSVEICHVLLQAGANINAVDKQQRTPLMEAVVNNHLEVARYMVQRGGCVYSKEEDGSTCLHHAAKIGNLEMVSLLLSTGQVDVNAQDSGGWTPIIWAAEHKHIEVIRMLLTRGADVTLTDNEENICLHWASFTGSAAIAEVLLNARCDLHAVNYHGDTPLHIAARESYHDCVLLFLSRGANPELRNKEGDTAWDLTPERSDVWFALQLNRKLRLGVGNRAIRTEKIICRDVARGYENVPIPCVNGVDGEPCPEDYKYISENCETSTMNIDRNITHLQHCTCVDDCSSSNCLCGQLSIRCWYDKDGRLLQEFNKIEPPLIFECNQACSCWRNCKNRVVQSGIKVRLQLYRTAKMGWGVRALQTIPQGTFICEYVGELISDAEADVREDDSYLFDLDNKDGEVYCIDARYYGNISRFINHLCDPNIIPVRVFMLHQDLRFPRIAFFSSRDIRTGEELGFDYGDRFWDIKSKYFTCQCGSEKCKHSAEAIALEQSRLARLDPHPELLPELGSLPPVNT
Experiment: qHTS Assay for Inhibitors of Histone Lysine Methyltransferase G9a; also: nearly all actives have a fitted effect of over 75% in size
Conditions: G9a H3K9 monomethylation, AlphaScreen, 2 h; activity, negative = inhibition: at 59 µM (top of the series) unless noted
In short: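 Signal arises when biotinylated H3K9 peptide, once monomethylated, bridges streptavidin donor and antibody-captured acceptor beads. Enzyme at 20 nM was preincubated 15 min with test compounds; peptide 500 nM and SAM 20 uM then reacted for 2 h.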
% is scaled to controls: 0 for no effect and ±100 for the full control effect; potency is read from the fitted curve at half-maximal effect; tags tell the direction and shape of the fitted curve.

Row | SMILES | Potency | activity, negative = inhibition
1 | CCC(C)c1ccccc1N1CC(C(=O)Nc2ccc(S(=O)(=O)N3CCOCC3)cc2)CC1=O (centres undefined) | active: 50.1 µM | 
2 | CCOC(=O)c1nnn(-c2nonc2-n2cccc2)c1CCl | inconclusive: 79.4 µM [inhibitor, single point] | 
3 | COc1ccc(OC)c(NC(=O)NCc2ccc(F)cc2)c1 | inconclusive: 7.94 µM [inhibitor, full curve, poor fit] | 
4 | CCOc1ccc(-c2nc(=S)[nH][nH]2)cc1 | active: 1.41 µM | 
5 | N#C/C(=C\c1cc([N+](=O)[O-])ccc1Cl)C(N)=O | inconclusive: 89.1 µM [inhibitor, single point] | 
6 | [O-]C1=N/[N+](=C/c2ccc(Cl)c(Cl)c2)CC1 | inconclusive: 22.4 µM [inhibitor, single point] | 
7 | CCC(=O)NNc1nc2c(C)cc(C)cc2s1 | inconclusive: 44.7 µM [inhibitor, partial curve] | 
8 | CC(C)(C)NC(=O)C(c1ccncc1)N(Cc1cccs1)C(=O)Cn1nnc(-c2cccs2)n1 (centres undefined) | inconclusive: 70.8 µM [inhibitor, single point] | 
9 | COc1ccc(NC2CCCN(C(=O)CCc3cccc(Cl)c3)C2)cc1 (centres undefined) | inconclusive: 31.6 µM [inhibitor, full curve, poor fit] | 
10 | C/C(=N\Nc1ccc([N+](=O)[O-])cc1)c1ccc(N)cc1 | active: 7.08 µM | 
11 | CN1C(=O)CSc2ccc(C(=O)O)cc21 | inconclusive: 89.1 µM [inhibitor, single point] | 
12 | CCC(C)c1ccccc1NC(=O)COC(=O)c1ccc(C)c(NC(=O)c2ccco2)c1 (centres undefined) | inconclusive: 22.4 µM [inhibitor, single point] | 
13 | O=C(/C=C\c1cccs1)c1c(O)ccc2ccc(=O)oc12 | inconclusive: 28.2 µM [inhibitor, single point] | 
14 | CCn1cc2c(n1)-c1c(oc(C(=O)Nc3cccc(C(F)(F)F)c3)c1C)CC2 | inconclusive: 0.708 µM [inhibitor, full curve, poor fit] | 
15 | COc1ccccc1Cn1cc(C(=O)c2ccc(C)cc2)c(=O)c2cc3c(cc21)OCCO3 | inactive | 
16 | O=S(=O)(c1ccc2c(c1)OCCO2)N1CCNCC1 | inconclusive: 89.1 µM [inhibitor, single point] | 
17 | COc1c(C(CC(C)C)OC(C)=O)ccc2c1C(=O)OCc1cc(C)cc(O)c1O2 (centres undefined) |  | inconclusive: -53.6% [inhibitor]
18 | CC(/C=N/NC(=O)c1ccncc1)=C\c1ccco1 | inactive | 
19 | CN1CCc2cc3c(c4c2[C@H]1[C@H](O)c1ccccc1-4)OCO3 | active: 50.1 µM | 
20 | FC(F)(F)C1=CC(c2ccccc2)=NCCN1 |  | inconclusive: -58.6% [inhibitor] [at 102 µM]
21 | CCCc1nc2ccccc2c(C(=O)OCC(=O)Nc2ccc(S(=O)(=O)N3CCOCC3)cc2)c1CC | inconclusive: 22.4 µM [inhibitor, single point] | 
22 | COC(=O)c1ccc(CSc2nnc3ccc4ccccc4n23)cc1 | inactive | 

Row | SMILES | Potency | activity, negative = inhibition
23 | CCOC(=O)N1CCC(NC(=O)c2cc3sccc3n2CC)CC1 | inconclusive: 89.1 µM [inhibitor, single point] | 
24 | O=C(NC1CCCCC1)c1cc(-c2ccccn2)nc2ccccc12 | active: 50.1 µM | 
25 | CCOC(=O)N1CCC(N2C(=O)c3ccccc3C2Nc2ccc(S(=O)(=O)N(CC)CC)cc2)CC1 (centres undefined) | inconclusive: 50.1 µM [inhibitor, partial curve, poor fit] | 
26 | COC(=O)C1=C(C)Nc2nnnn2C1c1ccccc1Cl (centres undefined) | inactive | 
27 | CC1=CC(c2ccccc2)n2nc(N3C(=O)C4CC=CCC4C3=O)nc2N1 (centres undefined) | active: 25.1 µM | 
28 | COc1ccccc1-c1noc(CCCC(=O)Nc2cc(C)ccc2C)n1 | inactive | 
29 | COc1ccc(-c2cc(-c3ccccc3)nc(N3CCCC3)n2)cc1OC | inconclusive: 2.24 µM [inhibitor, partial curve, poor fit] | 
30 | CCc1ccc(C(c2c(C)nn(-c3ccccc3)c2N)c2c(C)nn(-c3ccccc3)c2N)cc1 | inconclusive: 12.6 µM [inhibitor, partial curve, poor fit] | 
31 | CCN(CCNc1ccc(Cl)cc1[N+](=O)[O-])C(=O)c1cc([N+](=O)[O-])c(N(C)C)cc1OC | inconclusive: 12.6 µM [inhibitor, partial curve, poor fit] | 
32 | CN(Cc1ccccc1)C(=O)CCC(=O)N(C)Cc1ccccc1 | inconclusive: 89.1 µM [inhibitor, single point] | 
33 | COc1cc(NC(=S)N2CCCC(CO)C2)c(OC)cc1Cl (centres undefined) | active: 44.7 µM | 
34 | Cc1ccc(-c2nn3c(C)nnc3s2)cc1NC(=O)c1ccc(-c2cccc(Cl)c2)o1 | inconclusive: 1.26 µM [inhibitor, full curve, poor fit] | 
35 | COc1cccc(/C(O)=C/c2nc3ccc(C(=O)NCCc4ccc(Cl)cc4)cc3[nH]c2=O)c1 | inconclusive: 79.4 µM [inhibitor, single point] | 
36 | CCc1noc(C)c1C(=O)OCC(=O)NCCc1ccc(OC)cc1 | inconclusive: 89.1 µM [inhibitor, partial curve, poor fit] | 
37 | CC(=O)c1ccc(NC(=O)CCOc2ccccc2)cc1 | inconclusive: 39.8 µM [inhibitor, single point] | 
38 | Cc1ccc(S(=O)(=O)N/N=C/c2ccc3nccnc3c2)cc1 | active: 3.16 µM | 
39 | CCCC(C)C(=O)Nc1ccc(S(N)(=O)=O)cc1 (centres undefined) | inconclusive: 89.1 µM [inhibitor, single point] | 
40 | Cc1ccccc1-n1nc2c(c1NC(=O)C1CCCC1)CS(=O)(=O)C2 | inconclusive: 70.8 µM [inhibitor, partial curve, poor fit] | 
41 | CCCCCC(=O)NCc1c(C(F)(F)F)nn(C)c1N1CCOCC1 | inactive | 
42 | COc1ccc(NC(=O)CSc2nnc(-c3ccccc3)n2Cc2ccco2)c(OC)c1 | inactive | 
43 | CCOc1ccccc1NC(=O)C(CC)n1c(C(=O)OC)cc2occc21 (centres undefined) | inconclusive: 28.2 µM [inhibitor, partial curve, poor fit] | 
44 | Cn1c(=O)c2c(-c3ccccc3)n(-n3cnnc3)cc2n(C)c1=O | inconclusive: 0.316 µM [inhibitor, full curve, poor fit] | 
